Measured values published in a collection of fitness landscapes (doi:10.1126/science.1257360).
The list shows a part of the results.

B1: PhoQ; a variant is named by its letters at X, in order, P23837 (parent)
chain: MKKLLRLFFPLSLRVRFLLATAAVVLVLSLAYGMVALIGYSVSFDKTTFRLLRGESNLFYTLAKWENNKLHVELPENIDKQSPTMTLIYDENGQLLWAQRDVPWLMKMIQPDWLKSNGFHEIEADVNDTSLLLSGDHSIQQQLQEVREDDDDAEMTHSVAVNVYPATSRMPKLTIVVVDTIPVELKSSYMVWSWFIYVLSANLLLVIPLLWVAAWWSLRPIEALAKEVRELEEHNRELLNPATTRELTSLVRNLNRLLKSERERYDKYRTTLTDLTHSLKTPLXXLQXXLRSLRSEKMSVSDAEPVMLEQISRISQQIGYYLHRASMRGGTLLSRELHPVAPLLDNLTSALNKVYQRKGVNISLDISPEISFVGEQNDFVEVMGNVLDNACKYCLEFVEISARQTDEHLYIVVEDDGPGIPLSKREVIFDRGQRVDTLRPGQGVGLAVAREITEQYEGKIVAGESMLGGARMEVIFGRQHSAPKDE

Variants of: B1
Experiment: enrichment ratio after two sorts for PhoP signalling (ratio (wild type AVST 3.29)); higher = more functional
Conditions: with PhoP (E. coli)

| Variant | enrichment ratio |
| --- | --- |
| HHVF | ≤ 0.25 |
| GIWP | ≤ 0.25 |
| VHGK | ≤ 0.25 |
| EERF | ≤ 0.25 |
| YKHQ | ≤ 0.25 |
| GMIY | ≤ 0.25 |
| RVLH | ≤ 0.25 |
| GRLM | 0.324 |
| IHIN | ≤ 0.25 |
| HQRG | ≤ 0.25 |
| GMIS | ≤ 0.25 |
| TMCR | 20.7 |
| PMLN | ≤ 0.25 |
| ADAF | ≤ 0.25 |
| RNEF | ≤ 0.25 |
| WFTP | ≤ 0.25 |
| FNAY | ≤ 0.25 |
| NNGY | ≤ 0.25 |
| YYLW | ≤ 0.25 |
| YPTQ | ≤ 0.25 |
| IITW | ≤ 0.25 |
| SMPP | ≤ 0.25 |
| YPHN | ≤ 0.25 |
| PLPR | ≤ 0.25 |
| PKKG | ≤ 0.25 |

| Variant | enrichment ratio |
| --- | --- |
| FYFT | ≤ 0.25 |
| AESM | 11.2 |
| VCAW | ≤ 0.25 |
| EFYE | ≤ 0.25 |
| DMVQ | ≤ 0.25 |
| ELTC | ≤ 0.25 |
| ATWM | ≤ 0.25 |
| AIVY | 4.39 |
| PIRV | ≤ 0.25 |
| HKAT | ≤ 0.25 |
| ENPI | ≤ 0.25 |
| CRSV | ≤ 0.25 |
| QKCG | ≤ 0.25 |
| IMWY | ≤ 0.25 |
| SIAS | 7.5 |
| PIVS | ≤ 0.25 |
| ITLC | 2.87 |
| PSIH | ≤ 0.25 |
| DFPF | ≤ 0.25 |
| YNWP | ≤ 0.25 |
| PISD | ≤ 0.25 |
| NFCG | ≤ 0.25 |
| GPTT | ≤ 0.25 |
| LKQK | ≤ 0.25 |
| YLYL | ≤ 0.25 |

| Variant | enrichment ratio |
| --- | --- |
| DMPW | ≤ 0.25 |
| HCCL | ≤ 0.25 |
| GPWL | ≤ 0.25 |
| SQWG | ≤ 0.25 |
| YADF | ≤ 0.25 |
| GVTP | ≤ 0.25 |
| LIKI | ≤ 0.25 |
| WQYK | ≤ 0.25 |
| EQSY | ≤ 0.25 |
| NYTS | ≤ 0.25 |
| DGAQ | ≤ 0.25 |
| YWPS | ≤ 0.25 |
| KDTV | ≤ 0.25 |
| ACVY | ≤ 0.25 |
| KSFR | ≤ 0.25 |
| WQFQ | ≤ 0.25 |
| GISK | 4.87 |
| WGGI | ≤ 0.25 |
| WHNW | ≤ 0.25 |
| MCCT | ≤ 0.25 |
| SVSS | 10.1 |
| QSHW | ≤ 0.25 |
| KAVE | ≤ 0.25 |
| KRRH | ≤ 0.25 |
| WNKY | ≤ 0.25 |

| Variant | enrichment ratio |
| --- | --- |
| WYAQ | ≤ 0.25 |
| IRIS | ≤ 0.25 |
| IWGD | ≤ 0.25 |
| GQQG | ≤ 0.25 |
| LAHS | ≤ 0.25 |
| QSYG | 8.26 |
| AWWH | ≤ 0.25 |
| LSQL | ≤ 0.25 |
| RCLG | ≤ 0.25 |
| KQCL | ≤ 0.25 |
| TGIT | ≤ 0.25 |
| RPRH | ≤ 0.25 |
| SHTE | ≤ 0.25 |
| VPNT | ≤ 0.25 |
| NFAI | ≤ 0.25 |
| VVTY | ≤ 0.25 |
| YGSK | ≤ 0.25 |
| ICVF | ≤ 0.25 |
| IGQR | ≤ 0.25 |
| NKVG | ≤ 0.25 |
| QDKF | ≤ 0.25 |
| HSTK | ≤ 0.25 |
| SDTQ | ≤ 0.25 |
| EDWV | ≤ 0.25 |
| PLHR | ≤ 0.25 |

| Variant | enrichment ratio |
| --- | --- |
| DTKG | ≤ 0.25 |
| HPWK | ≤ 0.25 |
| FYSP | ≤ 0.25 |
| HPTK | ≤ 0.25 |
| VGKG | ≤ 0.25 |
| QWVA | ≤ 0.25 |
| LIMW | ≤ 0.25 |
| IHAW | ≤ 0.25 |
| LAIG | ≤ 0.25 |
| VQEI | ≤ 0.25 |
| FITW | 0.679 |
| THCM | 6.31 |
| RSRV | ≤ 0.25 |
| WTGF | ≤ 0.25 |
| GFIK | ≤ 0.25 |
| HNHV | ≤ 0.25 |
| EDAI | ≤ 0.25 |
| RVLL | ≤ 0.25 |
| AHWF | ≤ 0.25 |
| IEFC | ≤ 0.25 |
| ISNL | ≤ 0.25 |
| MSKS | ≤ 0.25 |
| GPWS | ≤ 0.25 |
| MTDV | ≤ 0.25 |
| VLNG | ≤ 0.25 |

| Variant | enrichment ratio |
| --- | --- |
| RYTY | ≤ 0.25 |
| IAMW | ≤ 0.25 |
| VIAV | ≤ 0.25 |
| TVMM | 0.563 |
| LMHR | 0.29 |
| EIGF | 17.3 |
| NWRA | ≤ 0.25 |
| KASH | ≤ 0.25 |
| GHLQ | ≤ 0.25 |
| FHDV | ≤ 0.25 |
| TGEV | 26.6 |
| WGIY | ≤ 0.25 |
| YSQT | ≤ 0.25 |
| LHIP | ≤ 0.25 |
| STTY | 7.54 |
| WTHG | ≤ 0.25 |
| FLQF | ≤ 0.25 |
| LYNC | ≤ 0.25 |
| KTYF | ≤ 0.25 |
| YHVR | ≤ 0.25 |
| AFPR | ≤ 0.25 |
| DWLP | ≤ 0.25 |
| PMWL | ≤ 0.25 |
| GKEI | ≤ 0.25 |
| IFPF | ≤ 0.25 |

| Variant | enrichment ratio |
| --- | --- |
| QEGF | ≤ 0.25 |
| VYFQ | ≤ 0.25 |
| RHQM | ≤ 0.25 |
| NDPS | ≤ 0.25 |
| ANNP | ≤ 0.25 |
| TAIC | ≤ 0.25 |
| MGLP | ≤ 0.25 |
| DQTW | ≤ 0.25 |
| WHWL | ≤ 0.25 |
| HKVM | ≤ 0.25 |
| VRCC | ≤ 0.25 |
| TVFQ | ≤ 0.25 |
| IMVT | ≤ 0.25 |
| DCMT | ≤ 0.25 |
| VTRK | ≤ 0.25 |
| FAEN | ≤ 0.25 |
| HCRQ | ≤ 0.25 |
| PPSI | ≤ 0.25 |
| RKLY | ≤ 0.25 |
| FVHI | ≤ 0.25 |
| MMLA | ≤ 0.25 |
| FPLL | ≤ 0.25 |
| IQWK | ≤ 0.25 |
| ISNR | ≤ 0.25 |
| WHGV | ≤ 0.25 |

| Variant | enrichment ratio |
| --- | --- |
| ETHG | ≤ 0.25 |
| SNYV | 0.433 |
| VAYT | ≤ 0.25 |
| YVYI | ≤ 0.25 |
| PHVN | ≤ 0.25 |
| KLWV | ≤ 0.25 |
| HNGL | ≤ 0.25 |
| YVLR | ≤ 0.25 |
| SNSF | 10.8 |
| VGCH | 3.36 |
| MESI | 12.5 |
| NCSE | ≤ 0.25 |
| VEAY | ≤ 0.25 |
| GAVW | ≤ 0.25 |
| WRLL | ≤ 0.25 |
| RHHL | 0.334 |
| GPNW | ≤ 0.25 |
| QKFE | ≤ 0.25 |
| FEDL | ≤ 0.25 |
| TKIQ | 4.3 |
